pIC50: −log10 of the molar value. Bounds are passed on as bounds.

This note sets out measurements from US8530520B2, “Cycloalkyl-dione derivatives and methods of their use” (The Trustees Of The University Of Pennsylvania, priority 2011, dated 2013).

One test has as its target T1, mouse TP receptor (Mus musculus, UniProt P30987).
T1 sequence (P30987 1-341): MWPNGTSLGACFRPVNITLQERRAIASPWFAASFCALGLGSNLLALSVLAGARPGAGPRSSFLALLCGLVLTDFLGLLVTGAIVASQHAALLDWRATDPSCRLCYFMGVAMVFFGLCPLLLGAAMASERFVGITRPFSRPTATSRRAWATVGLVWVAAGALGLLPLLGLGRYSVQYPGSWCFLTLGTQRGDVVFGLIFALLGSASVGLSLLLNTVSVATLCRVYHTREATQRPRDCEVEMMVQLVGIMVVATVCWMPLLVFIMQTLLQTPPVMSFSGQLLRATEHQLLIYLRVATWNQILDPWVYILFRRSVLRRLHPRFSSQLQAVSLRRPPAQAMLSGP
Put plainly: TP receptor binding, scintillation proximity assay (3H-SQ29,548). More on the design: expressed in transfected cells.
Conditions: not given
The source says: Radioligand Binding Assay. […] Data is presented as percent total binding, with total binding calculated from a minimum of three wells containing membrane, beads, and ^3H-SQ29,548 without antagonist.
`O=C(O)CCc1cccc(CCNS(=O)(=O)c2ccc(Cl)cc2)c1` [Compound 12, reference compound]: the pIC50 was 7.59.

Still in this test, the particulars now being: membranes of QBI-HEK 293A cells expressing mouse TP receptor; 20 nM 3H-SQ29,548; 2 hours at 25° C.; read-out: TP Receptor Binding Scintillation Proximity Assay Mouse TP.
Turning to `O=C1C=C(O)C(Cc2cccc(CCNS(=O)(=O)c3ccc(Cl)cc3)c2)C1` (stereo not shown) [Compound 41, 4-Chloro-N-(3-((2-hydroxy-4-oxocyclopent-2-en-1-yl)methyl)phenethyl)benzenesulfonamide], the pIC50 is 7.96.
Same read-out and setting: under `O=C1CCC(O)=C1Cc1cccc(CCNS(=O)(=O)c2ccc(Cl)cc2)c1` [Compound 50, 4-Chloro-N-(3-((2-hydroxy-5-oxocyclopent-1-en-1-yl)methyl)phenethyl)benzenesulfonamide] stands 5.92; under `CC1=C(O)C(Cc2cccc(CCNS(=O)(=O)c3ccc(Cl)cc3)c2)CC1=O` (stereo not shown) [Compound 42, 4-Chloro-N-(3-((2-hydroxy-3-methyl-4-oxocyclopent-2-en-1-yl)methyl)phenethyl)-benzenesulfonamide], 7.59.
On the same count and under the same terms, the value for `O=c1c(O)c(NCc2cccc(CCNS(=O)(=O)c3ccc(Cl)cc3)c2)c1=O` [Compound 61] was 7.77; that for `O=S(=O)(NCCc1cccc(CCCO)c1)c1ccc(Cl)cc1` [Compound 59] was below 5.00.
As for `O=S(=O)(NCCc1cccc(CCc2nnn[nH]2)c1)c1ccc(Cl)cc1` [Compound 60], the pIC50 was 7.72.
